Laboratory results taken from PubChem BioAssay AID1347120 (National Center for Advancing Translational Sciences (NCATS), 2019).
Screen size: about 390,000 compounds; about 930 (0.24%) were called active. Inconclusive results, whose numbers are uncertain, are shown with a selection of clear calls. The call rests on the fitted dose curve; in most records, active means well fitted activation curve with a large enough effect; inconclusive means small, poorly fitted or top-dose-only effect; inactive means no such curve, though single readings can be large or run the other way. Where the call is inconclusive, the potency comes from a doubtful curve fit.

Assay: qHTS for Suppressors of FUS Proteinopathy: Primary screen using FUS-linked yeast assay; further: nearly all actives have a fitted effect of over 55% in size;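 on growth rescue (activation): plate controls were DMSO vehicle for no effect and reference control for full effect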
Details: S. cerevisiae FUS-expressing, OD600, 24 h; Potency: growth rescue; growth rescue (activation): at 76.6 µM (top of the series)
How it was run: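 Compound concentration series was pinned onto galactose-induced FUS-expressing yeast seeded at OD 0.005. Plates sat 24hr at 30C; absorbance at 600 nm gave growth. DMSO served as background control.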
Potency means the concentration at half of the fitted maximal effect; tags describe the fitted curve by direction and shape.

Row | SMILES | Potency | growth rescue (activation)
1 | Cc1ccccc1C(=O)N1CCC2CC1c1cc(-c3ccc(F)cc3)ccc12 (centres undefined) | inconclusive: 25.1 µM [activator, single point] | 
2 | O=C(CCS(=O)(=O)c1cc(Br)cc2c1N(C(=O)C1CC1)CC2)N1CCN(c2cccc(C(F)(F)F)c2)CC1 | inconclusive: 28.2 µM [activator, partial curve, poor fit] | 
3 | Cc1cccc(N2C(=O)N(Cc3cccc(C#N)c3)c3ccccc3S2(=O)=O)c1 | inconclusive: 7.08 µM [activator, partial curve] | 
4 | Cc1nc2c(OCc3ccc(C(F)(F)F)cc3)cccn2c1N(C)C(=O)CCC1CCCC1 | active: 22.4 µM | 
5 | O=C1CCSC2(C(=O)N(Cc3ccc(F)cc3)c3ccccc32)N1c1cccc(F)c1 (centres undefined) | inconclusive: 50.1 µM [activator, single point] | 
6 | CCN1C(=O)c2ccccc2S(=O)c2ccc(C(=O)NCc3ccc(Cl)cc3)cc21 (centres undefined) | inconclusive: 22.4 µM [activator, single point] | 
7 | COc1ccc(Nc2ncnc3ccc(C)cc23)cc1 |  | inactive: 8.32%
8 | O=C(/C=C/c1cn(-c2ccccc2)nc1-c1cccc(Cl)c1)N1CCN(c2ccccn2)CC1 | inconclusive: 17.8 µM [activator, partial curve, poor fit] | 
9 | COc1ccc(C(=O)Oc2cc(-c3ccc(OC)c(OC)c3)cc(=O)c3c(C)oc(C)c23)cc1 | inconclusive: 28.2 µM [activator, single point] | 
10 | CCCCN(C=O)c1c(CC)nc2ccc(C(=O)N3CCN(S(=O)(=O)CC)CC3)cn12 |  | inactive: -28.9%
11 | CCC(Sc1nc(=O)cc(N)n1CCc1ccccc1)C(=O)Nc1ccccc1C#N (centres undefined) |  | inconclusive: 80.5% [activator]
12 | COc1ccc(C2CC(c3cc(OC)ccc3OC)n3nnnc3N2)cc1 (centres undefined) | inconclusive: 4.47 µM [activator, full curve] | 
13 | CCOC(=O)[C@]12CCCCC/C=C\1N(Cc1ccc(OC)cc1)C(=O)[C@H]2CC(=O)NCc1ccccc1 | inconclusive: 15.8 µM [activator, partial curve, poor fit] | 
14 | COc1ccc(C2C(C(C)=O)=C(O)C(=O)N2c2ccc(O)cc2)cc1 (centres undefined) |  | inactive: 25.1%
15 | Clc1ccccc1C1CC(c2ccccc2)=Nc2ccccc2N1 (centres undefined) |  | inactive: 10.1%
16 | O=C(c1cccc(C(=O)N2CCN(c3ccccc3)CC2)c1)N1CCN(c2ccccc2)CC1 | inconclusive: 25.1 µM [activator, single point] | 
17 | COc1cccc(CNc2nc3cc(-c4ccc(OC)cc4C)sc3c(=O)n2C)c1 |  | inactive: 41.2%
18 | Cc1ccc2nc(NC(=O)C3=NN(c4ccccc4)C(=O)CC3)sc2c1 | inconclusive: 28.2 µM [activator, single point] | 
19 | COC(=O)[C@]12C[C@H](CC(=O)NCc3cccc(C(F)(F)F)c3)C(=O)N(CCc3ccc(OC)c(OC)c3)C1=C[C@H](C1CCCC1)O[C@@H]2C | inconclusive: 8.91 µM [activator, full curve, poor fit] | 
20 | CC(C)CC(=O)OCc1cc(=O)n2nc(C3CCCCC3)sc2n1 |  | inactive: 22.3%

Row | SMILES | Potency | growth rescue (activation)
21 | Cn1cccc1C(=O)OCC(=O)c1cc2ccccc2o1 | inconclusive: 35.5 µM [activator, partial curve, poor fit] | 
22 | Cc1nn(CC(=O)NCc2ccc(N(C)C)cc2)c(=O)c2nn(-c3ccccc3)c(C)c12 |  | inactive: 1.76%
23 | COc1cc(NC(=O)CSc2nc(=O)n(CCCN3CCOCC3)c3c2CCC3)cc(OC)c1 |  | inactive: 15.2%
24 | CCNc1nc(-c2cc(C)n(Cc3ccco3)c2C)cs1 | inconclusive: 35.5 µM [activator, single point] | 
25 | Cc1ccc(Cn2c(CN3CCN(c4cccc(Cl)c4)CC3)nc3c2c(=O)n(C)c(=O)n3C)cc1 | inconclusive: 15.8 µM [activator, partial curve, poor fit] | 
26 | O=C(c1cccc(S(=O)(=O)N2CCN(c3ccc(F)cc3)CC2)c1)N1CCN(c2ccccc2O)CC1 | inconclusive: 5.62 µM [activator, full curve] | 
27 | COC(=O)[C@]12C[C@H](CC(=O)NCCCN3CCCC3=O)C(=O)N(Cc3ccc(Cl)cc3Cl)C1=C[C@H](C1CCCC1)O[C@@H]2C | inconclusive: 25.1 µM [activator, single point] | 
28 | CCc1sc(NC(=O)COC)nc1-c1ccccc1 |  | inconclusive: 66.8% [activator]
29 | Cc1ccc(C(C(=O)NCc2ccccc2)N(Cc2cccs2)C(=O)c2ccc3c(c2)OCCO3)cc1 (centres undefined) | inconclusive: 25.1 µM [activator, partial curve] | 
30 | COc1ccc(-n2c(=S)[nH]c3cc(C(=O)NCCCN4CCCC4=O)ccc3c2=O)c(OC)c1 | inconclusive: 50.1 µM [activator, single point] | 
31 | CCOC(=O)CCCCCC(=O)Nc1ccc2c(c1)C(=O)N([C@@H](C)CO)C[C@@H](C)[C@H](CN(C)S(=O)(=O)c1cccs1)OCCCC[C@H](C)O2 | inconclusive: 14.1 µM [activator, partial curve, poor fit] | 
32 | COc1ccc(S(=O)(=O)N(C)C[C@@H]2Oc3c(NC(=O)Nc4cccc5ccccc45)cccc3C(=O)N([C@@H](C)CO)C[C@H]2C)cc1 | inconclusive: 25.1 µM [activator, partial curve, poor fit] | 
33 | CCOc1nc(C)ccc1-c1noc(-c2ccccn2)n1 |  | inactive: 3.81%
34 | CCC(=O)NC(=S)Nc1ccc(N2CCN(C(=O)c3ccc(Cl)cc3)CC2)cc1 | inconclusive: 25.1 µM [activator, partial curve, poor fit] | 
35 | CCOc1ccc(CNC(=O)CSc2c3c(nc4ccc(Cl)cc24)CCCC3)cc1 |  | inactive: -6.49%
36 | COc1ccccc1N1CCN(c2cc(C)nc3nncn23)CC1 |  | inactive: -6.25%
37 | O=C(Nc1ccc(-c2ccc3nncn3n2)cc1)C1CCCCC1 | inconclusive: 17.8 µM [activator, partial curve, poor fit] | 
38 | S=c1[nH]nc(-c2c[nH]c3ccccc23)o1 |  | inactive: 18.8%
39 | C[C@H](CO)N1C[C@H](C)[C@@H](CN(C)C(=O)Nc2ccc(C(F)(F)F)cc2)Oc2ccc(NC(=O)C3CCCCC3)cc2C1=O | inconclusive: 20 µM [activator, single point] | 
